{"source": "PubChem BioAssay AID1345082", "about": "(National Center for Advancing Translational Sciences (NCATS), 2018)", "note": "The campaign covered roughly 94,000 compounds. About 4,000 (4.3%) were called active. This list was built around the results that the source calls inconclusive (neither active nor inactive); the mix of calls is not that of the screen. Calls come from the whole dose curve; as a rule, active = well fitted inhibition curve with a large enough effect; inconclusive = small, poorly fitted or top-dose-only effect; inactive = no such curve, though single readings can be large or run the other way. A potency beside an inconclusive call is a rough fit, not a confirmed value. % is set by controls: 0 for no effect and ±100 for the full control effect; potency is the fitted concentration of half-maximal effect; tags give direction and shape of the fitted curve."}
{"experiment": "Cytotoxic Profiling in NIH 3T3 Cell Line of Diverse Libraries Using Quantitative High-Throughput Screening; note: nearly all actives have a fitted effect of over 55% in size", "details": "NIH 3T3 viability, CellTiter-Glo ATP luminescence, 48-72 h; activity change, negative = cytotoxicity: at 96.7 µM (top of the series); series mostly up to 96.7 µM", "summary_of_the_method": "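ATP-dependent luminescence (CellTiter-Glo) served as the viability signal for NIH 3T3 cells treated with compound for 48 or 72 hr at 37 °C.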"}
{"smiles": "COc1ccc(-c2cc(N3CCN(C(=O)c4cc(C)cc(C)c4)CC3)n[nH]2)cc1", "Potency": "inconclusive: 50.1 µM [inhibitor, partial curve, poor fit]"}
{"smiles": "C[S+](=O)([O-])CCn1ncc2cc(OCC3CCN(Cc4cccs4)CC3)ccc21", "Potency": "inconclusive: 100 µM [inhibitor, single point]"}
{"smiles": "O=C(NCCc1ccccc1)C1CCCN(C2CCN(Cc3ccccc3F)CC2)C1", "note": "(stereo not given)", "Potency": "inconclusive: 50.1 µM [inhibitor, partial curve, poor fit]"}
{"smiles": "COc1cccc(NC(=O)c2ccc3c(c2)NC(C)(COc2ccccc2)CO3)c1", "note": "(stereo not given)", "Potency": "active: 39.8 µM"}
{"smiles": "COCCNC(=O)c1cc(-c2ccc(F)cc2)c2nncn2n1", "activity change, negative = cytotoxicity": "inactive: -15.1% [at 138 µM]"}
{"smiles": "O=C1C(N2CCN(S(=O)(=O)c3cc(F)cc(F)c3)CC2)CCN1Cc1ccccn1", "note": "(stereo not given)", "activity change, negative = cytotoxicity": "inactive: -15.3%"}
{"smiles": "C[C@H]1[C@@H]2[C@@H](O)C([C@H](C)C(=O)NCc3cccs3)CC[C@@]2(C)CC[C@@H]1NC(=O)C1CCCCC1", "note": "(stereo not given in full)", "Potency": "inconclusive: 50.1 µM [inhibitor, partial curve, poor fit]"}
{"smiles": "CCC(C)NC(=O)C(NC(=O)c1ccccc1)C1CCN(C(=O)c2ccc(Cl)cc2)CC1", "note": "(stereo not given)", "Potency": "inconclusive: 70.8 µM [inhibitor, single point]"}
{"smiles": "CC(=O)N1CCN(C(=O)C2CCCN2c2nccc(Nc3ccc(C)cc3)n2)CC1", "note": "(stereo not given)", "outcome": "inactive"}
{"smiles": "Cn1cc2c3c(cccc31)CN(C(=O)c1ccc(F)cc1Cl)CC2", "Potency": "inconclusive: 70.8 µM [inhibitor, single point]"}
{"smiles": "Cn1nc(-c2ccncc2)cc1NC(=O)C1CC1", "activity change, negative = cytotoxicity": "inactive: -20.9% [at 138 µM]"}
{"smiles": "CNC(=O)c1cccc(-c2cnc(NC(=O)Cc3ccccc3)c3c2CCO3)c1", "Potency": "inconclusive: 79.4 µM [inhibitor, partial curve]"}
{"smiles": "CN1CCC(C(=O)N2CCC3(CC2)OC(=O)N(Cc2ccccc2F)C3(C)c2ccccc2)CC1", "note": "(stereo not given)", "Potency": "inconclusive: 79.4 µM [inhibitor, partial curve, poor fit]"}
{"smiles": "CC#CCn1cc2c3c(cccc31)[C@H](CC(C)C)N[C@H](C(=O)NCCN1CCOCC1)C2", "Potency": "active: 100 µM"}
{"smiles": "Cc1cc(F)ccc1NC(=O)C1CCN(c2cc(C(F)(F)F)ncn2)CC1", "activity change, negative = cytotoxicity": "inactive: -25.1%"}
{"smiles": "O=C(Nc1cccc2ccccc12)O[C@@H]1CO[C@H]2[C@@H]1OC[C@@H]2NC(=O)c1cccs1", "activity change, negative = cytotoxicity": "inactive: -39.7% [at 174 µM]"}
{"smiles": "COc1ccc(-c2ccccc2C(=O)NCC2CC2)nn1", "outcome": "inactive [at 138 µM]"}
{"smiles": "Cc1ccc(CN2CC[C@H](CO)[C@H](NC(=O)c3cccnc3)C2)s1", "activity change, negative = cytotoxicity": "inactive: -6.12%"}
{"smiles": "Fc1ccc(Cn2ccnc2-c2ccccn2)c(Cl)c1", "Potency": "inconclusive: 79.4 µM [inhibitor, partial curve, poor fit]"}
{"smiles": "CC(=O)NCC(=O)N1Cc2ccccc2CC2(CCCN2CC2CCCC2)C1", "note": "(stereo not given)", "activity change, negative = cytotoxicity": "inactive: -5.89%"}
{"smiles": "Cc1ccc(CNC(=O)CCC2CCCN(S(=O)(=O)c3ccc(F)cc3)C2)cc1", "note": "(stereo not given)", "activity change, negative = cytotoxicity": "inactive: -28.4%"}
{"smiles": "O=C(O)Cn1ccc2cc(OCC3CCN(C(=O)OC4CCCC4)CC3)cnc21", "Potency": "active: 31.6 µM"}
{"smiles": "COc1ccc(-c2nc(C3CC(=O)N(c4ccc(F)c(Cl)c4)C3)no2)cc1", "note": "(stereo not given)", "activity change, negative = cytotoxicity": "inactive: -10.4%"}
{"smiles": "COc1cccc(C(=O)N2CCC3(CC2)N(c2ccccc2)C(=O)CS3(=O)=O)c1", "activity change, negative = cytotoxicity": "inactive: 3.1%"}
{"smiles": "Fc1ccc(-c2nnc3ccc(N4CCN(c5ccccn5)CC4)nn23)nc1", "Potency": "inconclusive: 56.2 µM [inhibitor, partial curve, poor fit]"}
{"smiles": "Cn1ccc(NC(=O)c2ccc3c(c2)NC(C)(CNCc2ccccc2)CO3)n1", "note": "(stereo not given)", "activity change, negative = cytotoxicity": "inactive: -16.1% [at 138 µM]"}
{"smiles": "O=C(O)c1ccc(C2CCCN(C(=O)CCCn3cncn3)C2)cc1", "note": "(stereo not given)", "activity change, negative = cytotoxicity": "inactive: -1.38%"}
{"smiles": "CN(C)C(=O)C1CCCN(c2ccnc3ccnn23)C1", "note": "(stereo not given)", "activity change, negative = cytotoxicity": "inactive: -28% [at 138 µM]"}
{"smiles": "CC(CNC(=O)c1noc(-c2ccc(F)cc2)n1)c1ccccc1", "note": "(stereo not given)", "Potency": "inconclusive: 70.8 µM [inhibitor, single point]"}
{"smiles": "Cc1c(CC(=O)N2CCC(C#N)CC2)c2c(n1Cc1ccccc1)CCCC2=O", "Potency": "inconclusive: 89.1 µM [inhibitor, single point]"}
{"smiles": "COc1ccc(CC(=O)N2CCn3c(nn(-c4ccc(C)cc4)c3=O)C2)cc1", "Potency": "inconclusive: 44.7 µM [inhibitor, partial curve, poor fit]"}
{"smiles": "CNC(=O)[C@@H]1CN(C(=O)c2cc(C)n(CCOC)c2C)C[C@H]1CO", "activity change, negative = cytotoxicity": "inactive: -11%"}
{"smiles": "COc1ccccc1Nc1ccnc(N2CCCC(C(=O)N3CCOCC3)C2)n1", "note": "(stereo not given)", "activity change, negative = cytotoxicity": "inactive: -42%"}
{"smiles": "CC(C)Oc1cccc2c1c(NC(=O)c1cc(F)cc(C#N)c1)nn2C", "Potency": "inconclusive: 44.7 µM [inhibitor, partial curve, poor fit]"}
{"smiles": "COCCS(=O)(=O)c1ncc(CN(C)Cc2ccsc2)n1Cc1ccccc1", "Potency": "inconclusive: 44.7 µM [inhibitor, partial curve]"}
{"smiles": "CC(=O)NC1(C)CCN(Cc2ccc(Nc3ccc(N4CCOCC4)c(F)c3)cc2)C1", "note": "(stereo not given)", "Potency": "inconclusive: 79.4 µM [inhibitor, partial curve]"}
{"smiles": "CN(C)c1cccc(NC(=O)C2=NO[C@@H]3CN(Cc4ccc(F)cc4)C[C@H]23)c1", "Potency": "inconclusive: 89.1 µM [inhibitor, partial curve, poor fit]"}
{"smiles": "O=C1CC2(CCN(C(=O)c3ccc(C(F)(F)F)cc3)CC2)Oc2cc(Cl)ccc21", "Potency": "active: 25.1 µM"}
{"smiles": "CCOc1ccc(CC(=O)N2CCN(c3cc(-c4cccs4)[nH]n3)CC2)cc1OCC", "Potency": "active: 28.2 µM"}
{"smiles": "O=C1c2c(nc(COc3ccc4c(c3)OCO4)n2Cc2ccccc2)NCCN1CCOc1ccccc1", "Potency": "inconclusive: 20 µM [inhibitor, full curve]"}
{"smiles": "O=C(N[C@H]1CO[C@H]2[C@@H]1OC[C@@H]2n1cc(CC2CCCCC2)nn1)c1ccc(C(F)(F)F)cc1", "Potency": "inconclusive: 39.8 µM [inhibitor, partial curve]"}
{"smiles": "Cc1ccccc1CN1CCOc2cc([S+](=O)([O-])Nc3cccnc3)ccc2C1", "Potency": "inconclusive: 50.1 µM [inhibitor, partial curve, poor fit]"}
{"smiles": "COCCN1Cc2ccc(NCC(C)C)nc2C(C)(C(=O)Nc2ccccc2)C1", "note": "(stereo not given)", "Potency": "inconclusive: 44.7 µM [inhibitor, partial curve, poor fit]"}
{"smiles": "CCc1cccc(NC(=O)C2CCN(C(=O)c3ncn4c3COC(c3ccccc3)C4)CC2)c1", "note": "(stereo not given)", "activity change, negative = cytotoxicity": "inactive: -2.81%"}
{"smiles": "CNC(=O)c1cc(C2CC2)nc2c1c(C1CCN(C(=O)C3CC3)C1)nn2C", "note": "(stereo not given)", "activity change, negative = cytotoxicity": "inactive: -20.9%"}
{"smiles": "COc1ccc(CNc2ncnc3c2CN(C2CCNCC2)C(=O)CN3C)cc1OC", "outcome": "inactive"}
{"smiles": "O=C(Cc1ccc(F)cc1)N1CCCC(C(=O)N2CCC(c3nc4ccncc4[nH]3)C2)C1", "note": "(stereo not given)", "activity change, negative = cytotoxicity": "inactive: -11.7%"}
{"smiles": "CC(=O)Nc1ccc(S(=O)(=O)N[C@H]2CO[C@H]3[C@@H]2OC[C@@H]3Nc2nccc(-c3cccs3)n2)cc1", "Potency": "inconclusive: 31.6 µM [inhibitor, full curve]"}
{"smiles": "COC(=O)[C@@H]1Cc2c([nH]c3ccccc23)[C@H]2C[C@@H](NCCN3CCOCC3)C[C@@H](c3ccccc3F)N21", "Potency": "inconclusive: 28.2 µM [inhibitor, full curve, poor fit]"}
{"smiles": "Cc1ccc(CNC(=O)C2CN(S(=O)(=O)c3cccnc3)CC23CCCCC3)o1", "note": "(stereo not given)", "activity change, negative = cytotoxicity": "inactive: -11.2%"}
{"smiles": "O=C(c1ccc2c(c1)OCO2)N1CCN(c2cc(-c3ccc(Cl)cc3)[nH]n2)CC1", "Potency": "inconclusive: 10 µM [inhibitor, full curve, poor fit]"}
{"smiles": "COc1ccc2c(c1)CN(Cc1ccccc1)C(=O)CCN2CC(O)Cc1ccccc1", "note": "(stereo not given)", "Potency": "inconclusive: 50.1 µM [inhibitor, partial curve, poor fit]"}
{"smiles": "O=C(NCc1ccccc1Cl)C1CCCN(Cc2cccc(-c3cccs3)c2)C1", "note": "(stereo not given)", "Potency": "inconclusive: 39.8 µM [inhibitor, partial curve, poor fit]"}
{"smiles": "CCCNC(=O)C1COC2(CCC(C)CC2)N1C(=O)c1ccc(Cl)c(Cl)c1", "note": "(stereo not given)", "Potency": "inconclusive: 50.1 µM [inhibitor, partial curve, poor fit]"}
{"smiles": "CN(C)c1ccc(C(=O)N2CCN(S(C)(=O)=O)[C@H](C(=O)N[C@@H](CC3CCCCC3)C(N)=O)C2)cc1", "Potency": "inconclusive: 56.2 µM [inhibitor, partial curve, poor fit]"}
{"smiles": "COc1cccc(CC(=O)N2CCC3(CC2)N=C(c2ccc(Cl)cc2)NO3)c1", "Potency": "inconclusive: 20 µM [inhibitor, full curve, poor fit]"}
{"smiles": "CCC(=O)N1Cc2ccccc2CC2(CCN(CCc3ccc(C)cc3)CC2)C1", "Potency": "inconclusive: 50.1 µM [inhibitor, partial curve, poor fit]"}
{"smiles": "Cc1ccc(-c2cc(N3CCCN(C(=O)c4ccccc4C)CC3)n[nH]2)cc1C", "Potency": "active: 39.8 µM"}
{"smiles": "O=C(c1cnccn1)N1CCC2(CC1)NC(=O)N(Cc1cccc(Cl)c1)C2=O", "activity change, negative = cytotoxicity": "inactive: -20.3%"}
{"smiles": "O=C(NC[C@H]1O[C@H](Cc2cc(-c3ccc(F)cc3)on2)CC[C@@H]1O)C1CCC1", "Potency": "inconclusive: 70.8 µM [inhibitor, partial curve, poor fit]"}
{"smiles": "CCn1ccnc1CN(C)Cc1cn(Cc2ccccc2)nc1-c1ccc2c(c1)OCO2", "Potency": "inconclusive: 63.1 µM [inhibitor, partial curve, poor fit]"}
{"smiles": "CCCNC(=O)N(C1CCOCC1)C1CCN(C(=O)c2ccc(C)c(F)c2)CC1", "Potency": "inconclusive: 56.2 µM [inhibitor, partial curve, poor fit]"}
{"smiles": "COc1ccccc1-c1ccc2ncc(Nc3cccc(N[S+](C)(=O)[O-])c3)n2n1", "Potency": "inconclusive: 35.5 µM [inhibitor, partial curve]"}
{"smiles": "COCCCNC(=O)CNC(=O)c1cccc(-c2ccc(SC)cc2)c1", "Potency": "inconclusive: 50.1 µM [inhibitor, partial curve, poor fit]"}
{"smiles": "Cc1ccc(C)c(C(=O)Nc2ccc3c(N4CCCC4)ncnc3c2)c1", "Potency": "inconclusive: 5.62 µM [inhibitor, full curve, poor fit]"}
